How the values were obtained:
[1] = biological target: T1, MIP-P3-His (disulfide trap single-chain trimer of PRAME antigen peptide … and HLA-A24, His tag) (human); assay: SPR, Biacore T200, as in Section 2.3; MIP-P3-His as analyte
T1 construct: Single polypeptide; His tag added at the C-terminus; also called dtSCT; MIP-P3-His fusion protein

[2] = biological target: T2, HLA-A24/PRAME complex: PRAME301-309 (…) presented by HLA-A24 on cells (human; human (homo sapiens)); assay: flow cytometry on peptide-pulsed HT-29 cells, anti-human IgG-FITC
T2 construct: whole, on cells

[3] = biological target: T1, MIP-P3-His (disulfide trap single-chain …); assay: SPR, Biacore T200; antibody captured by anti-human IgG(Fc), MIP-P3-His as analyte, 1:1 model

Kd [1]: 0.0509 nM | koff [1]: 4.67e-05 s⁻¹ | kon [1]: 918000 M⁻¹ s⁻¹ | binding result [2]: binds | Kd [3]: 0.0579 nM | koff [3]: 4.03e-05 s⁻¹ | kon [3]: 696000 M⁻¹ s⁻¹
B1: N83G3-Fc recombinant protein (anti-HLA-A24/PRAME antibody N83G3) (Fc fusion)
chain: QVQLVESGGGLVQAGGSLRLSCAASGASLDIYVMGWYRQATGKERDLVAVITGSGNTNYADSVKGRFTISRDDAKNTLYLQMSSLKPEDTAVYYCAGGRPSRYYRDSGTWADFWGQGTQVTVSSAS[human IgG1 Fc with changes not given here]
notes: Llama VHH fused to the Fc of human IgG1; In SPR it was captured by an anti-human IgG(Fc) antibody; in flow cytometry it was detected with anti-human IgG-FITC; also called TCRm antibody N83G3; anti-HLA-A24/PRAME monoclonal antibody N83G3
